# This is one part of the list.
# B1: PILRa (Homo sapiens), Q9UKJ1 (protein)
# chain: MGRPLLLPLLPLLLPPAFLQPSGSTGSGPSYLYGVTQPKHLSASMGGSVEIPFSFYYPWELATAPDVRISWRRGHFHRQSFYSTRPPSIHKDYVNRLFLNWTEGQKSGFLRISNLQKQDQSVYFCRVELDTRSSGRQQWQSIEGTKLSITQAVTTTTQRPSSMTTTWRLSSTTTTTGLRVTQGKRRSDSWHISLETAVGVAVAVTVLGIMILGLICLLRWRRRKGQQRTKATTPAREPFQNTEEPYENIRNEGQNTDPKLNPKDDGIVYASLALSSSTSPRAPPSHRPLKSPQNETLYSVLKA
# Tests used:
# Experiment in all cases: glycan array binding signal (z-score within array); higher = stronger binding
# Conditions in all cases: glycan notation: IUPAC condensed, linker removed
# [1] = molecular target: Gal(b1-4)GlcNAc(b1-2)Man(a1-6)[Man(a1-3)]Man(b1-4)GlcNAc(b1-4)GlcNAc
# Outline: (§1)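 The binding signal is a Z-score computed within each array and averaged over linkers. Arrays of the same protein sequence at different concentrations or buffers were also averaged together. Data originate from 3228 arrays in the Consortium for Functional Glycomics database, kept only where the protein sequence was available.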
# [2] = molecular target: Gal(b1-4)GlcNAc(b1-2)[Gal(b1-4)GlcNAc(b1-4)]Man(a1-3)[Gal(b1-4)GlcNAc(b1-2)Man(a1-6)]Man(b1-4)GlcNAc(b1-4)GlcNAc
# Outline: as §1
# [3] = molecular target: Gal(b1-4)GlcNAc(b1-2)[Gal(b1-4)GlcNAc(b1-4)]Man(a1-3)[Gal(b1-4)GlcNAc(b1-2)[Gal(b1-4)GlcNAc(b1-6)]Man(a1-6)]Man(b1-4)GlcNAc(b1-4)GlcNAc
# Outline: as §1
# [4] = molecular target: Gal(b1-4)GlcNAc(b1-2)[Gal(b1-4)GlcNAc(b1-4)]Man(a1-3)[GlcNAc(b1-4)][Gal(b1-4)GlcNAc(b1-2)Man(a1-6)]Man(b1-4)GlcNAc(b1-4)GlcNAc
# Outline: as §1
# [5] = molecular target: Gal(b1-4)GlcNAc(b1-2)[Gal(b1-4)GlcNAc(b1-6)]Man(a1-6)[GlcNAc(b1-4)][Gal(b1-4)GlcNAc(b1-2)Man(a1-3)]Man(b1-4)GlcNAc(b1-4)GlcNAc
# Outline: as §1
# [6] = molecular target: Gal(b1-4)GlcNAc(b1-3)Gal(b1-3)GlcNAc
# Outline: as §1
# [7] = molecular target: Gal(b1-4)GlcNAc(b1-3)Gal(b1-4)Glc
# Outline: as §1
# [8] = molecular target: Gal(b1-4)GlcNAc(b1-3)Gal(b1-4)GlcNAc
# Outline: as §1
# [9] = molecular target: Gal(b1-4)GlcNAc(b1-3)Gal(b1-4)GlcNAc(b1-3)Gal(b1-4)GlcNAc
# Outline: as §1
# [10] = molecular target: Gal(b1-4)GlcNAc(b1-3)Gal(b1-4)[Fuc(a1-3)GlcNAc(b1-6)]Gal(b1-4)Glc
# Outline: as §1
# [11] = molecular target: Gal(b1-4)GlcNAc(b1-3)Gal(b1-4)[Fuc(a1-3)]GlcNAc(b1-3)Gal(b1-4)[Fuc(a1-3)]GlcNAc
# Outline: as §1
# [12] = molecular target: Gal(b1-4)GlcNAc(b1-3)GalNAc
# Outline: as §1
# [13] = molecular target: Gal(b1-4)GlcNAc(b1-3)[Gal(b1-4)GlcNAc(b1-6)]Gal(b1-4)GlcNAc
# Outline: as §1
# [14] = molecular target: Gal(b1-4)GlcNAc(b1-3)[Gal(b1-4)GlcNAc(b1-6)]GalNAc
# Outline: as §1
# [15] = molecular target: Gal(b1-4)GlcNAc(b1-3)[GlcNAc(b1-6)]Gal(b1-4)GlcNAc
# Outline: as §1
# [16] = molecular target: Gal(b1-4)GlcNAc(b1-6)Gal(b1-4)GlcNAc
# Outline: as §1
# [17] = molecular target: Gal(b1-4)GlcNAc(b1-6)Gal(b1-4)GlcNAc(b1-6)GalNAc
# Outline: as §1
# [18] = molecular target: Gal(b1-4)GlcNAc(b1-6)GalNAc
# Outline: as §1
# [19] = molecular target: Gal(b1-4)GlcNAc(b1-6)[Gal(b1-3)]GalNAc
# Outline: as §1
# Gal(b1-6)Gal = molecular target: Gal(b1-6)Gal
# Outline: as §1
# Gal3S(b1-3)GalNAc = molecular target: Gal3S(b1-3)GalNAc
# Outline: as §1
# Gal3S(b1-3)GlcNAc = molecular target: Gal3S(b1-3)GlcNAc
# Outline: as §1
# [20] = molecular target: Gal3S(b1-3)[Fuc(a1-4)]GlcNAc
# Outline: as §1
# Gal3S(b1-4)Glc = molecular target: Gal3S(b1-4)Glc
# Outline: as §1
# Gal3S(b1-4)Glc6S = molecular target: Gal3S(b1-4)Glc6S
# Outline: as §1
# Gal3S(b1-4)GlcNAc = molecular target: Gal3S(b1-4)GlcNAc
# Outline: as §1
# Gal3S(b1-4)GlcNAc6S = molecular target: Gal3S(b1-4)GlcNAc6S
# Outline: as §1
# [21] = molecular target: Gal3S(b1-4)[Fuc(a1-3)]Glc
# Outline: as §1
# [22] = molecular target: Gal3S(b1-4)[Fuc(a1-3)]Glc6S
# Outline: as §1
# Gal3S4S(b1-4)GlcNAc = molecular target: Gal3S4S(b1-4)GlcNAc
# Outline: as §1
# Gal3S6S(b1-4)GlcNAc = molecular target: Gal3S6S(b1-4)GlcNAc
# Outline: as §1
# Gal3S6S(b1-4)GlcNAc6S = molecular target: Gal3S6S(b1-4)GlcNAc6S
# Outline: as §1
# Gal4S(b1-4)GlcNAc = molecular target: Gal4S(b1-4)GlcNAc
# Outline: as §1
# Gal4S6S(b1-4)GlcNAc = molecular target: Gal4S6S(b1-4)GlcNAc
# Outline: as §1
# Gal6S(b1-3)GlcNAc = molecular target: Gal6S(b1-3)GlcNAc
# Outline: as §1
# Gal6S(b1-3)GlcNAc6S = molecular target: Gal6S(b1-3)GlcNAc6S
# Outline: as §1
# Gal6S(b1-4)Glc = molecular target: Gal6S(b1-4)Glc
# Outline: as §1
binder,measurement,setting,value
B1,glycan array binding signal (z-score),[1],-0.266
same,glycan array binding signal (z-score),[2],-0.188
same,glycan array binding signal (z-score),[3],-0.123
same,glycan array binding signal (z-score),[4],-0.063
same,glycan array binding signal (z-score),[5],-0.037
same,glycan array binding signal (z-score),[6],-0.309
same,glycan array binding signal (z-score),[7],-0.016
same,glycan array binding signal (z-score),[8],-0.293
same,glycan array binding signal (z-score),[9],-0.382
same,glycan array binding signal (z-score),[10],-0.309
same,glycan array binding signal (z-score),[11],-0.181
same,glycan array binding signal (z-score),[12],-0.038
same,glycan array binding signal (z-score),[13],-0.319
same,glycan array binding signal (z-score),[14],-0.348
same,glycan array binding signal (z-score),[15],-0.338
same,glycan array binding signal (z-score),[16],-0.187
same,glycan array binding signal (z-score),[17],-0.441
same,glycan array binding signal (z-score),[18],-0.211
same,glycan array binding signal (z-score),[19],-0.125
same,glycan array binding signal (z-score),Gal(b1-6)Gal,-0.177
same,glycan array binding signal (z-score),Gal3S(b1-3)GalNAc,-0.339
same,glycan array binding signal (z-score),Gal3S(b1-3)GlcNAc,-0.258
same,glycan array binding signal (z-score),[20],-0.229
same,glycan array binding signal (z-score),Gal3S(b1-4)Glc,0.009
same,glycan array binding signal (z-score),Gal3S(b1-4)Glc6S,0.618
same,glycan array binding signal (z-score),Gal3S(b1-4)GlcNAc,-0.234
same,glycan array binding signal (z-score),Gal3S(b1-4)GlcNAc6S,-0.01
same,glycan array binding signal (z-score),[21],-0.1
same,glycan array binding signal (z-score),[22],1.02
same,glycan array binding signal (z-score),Gal3S4S(b1-4)GlcNAc,-0.191
same,glycan array binding signal (z-score),Gal3S6S(b1-4)GlcNAc,0.574
same,glycan array binding signal (z-score),Gal3S6S(b1-4)GlcNAc6S,0.09
same,glycan array binding signal (z-score),Gal4S(b1-4)GlcNAc,0.374
same,glycan array binding signal (z-score),Gal4S6S(b1-4)GlcNAc,0.732
same,glycan array binding signal (z-score),Gal6S(b1-3)GlcNAc,-0.311
same,glycan array binding signal (z-score),Gal6S(b1-3)GlcNAc6S,-0.127
same,glycan array binding signal (z-score),Gal6S(b1-4)Glc,-0.227

# Source: the supplement of paper PMC8728848
